# Measured values published in PubChem BioAssay AID504332 (National Center for Advancing Translational Sciences (NCATS), 2011).
# Out of some 350,000 compounds screened, about 31,000 (8.9%) were called active. The shares of active, inactive and inconclusive entries below differ from those in the screen. Calls follow the shape of the dose curve; as a rule, active = well fitted inhibition curve with a large enough effect; inconclusive = small, poorly fitted or top-dose-only effect; inactive = no such curve, though single readings can be large or run the other way. Potencies beside an inconclusive call are fits to weak or partial responses and may not hold up.
# Biological target: Histone-lysine N-methyltransferase EHMT2 (Homo sapiens) (UniProt Q96KQ7)
# Sequence of UniProt Q96KQ7 (Q96KQ7 whole entry, looked up): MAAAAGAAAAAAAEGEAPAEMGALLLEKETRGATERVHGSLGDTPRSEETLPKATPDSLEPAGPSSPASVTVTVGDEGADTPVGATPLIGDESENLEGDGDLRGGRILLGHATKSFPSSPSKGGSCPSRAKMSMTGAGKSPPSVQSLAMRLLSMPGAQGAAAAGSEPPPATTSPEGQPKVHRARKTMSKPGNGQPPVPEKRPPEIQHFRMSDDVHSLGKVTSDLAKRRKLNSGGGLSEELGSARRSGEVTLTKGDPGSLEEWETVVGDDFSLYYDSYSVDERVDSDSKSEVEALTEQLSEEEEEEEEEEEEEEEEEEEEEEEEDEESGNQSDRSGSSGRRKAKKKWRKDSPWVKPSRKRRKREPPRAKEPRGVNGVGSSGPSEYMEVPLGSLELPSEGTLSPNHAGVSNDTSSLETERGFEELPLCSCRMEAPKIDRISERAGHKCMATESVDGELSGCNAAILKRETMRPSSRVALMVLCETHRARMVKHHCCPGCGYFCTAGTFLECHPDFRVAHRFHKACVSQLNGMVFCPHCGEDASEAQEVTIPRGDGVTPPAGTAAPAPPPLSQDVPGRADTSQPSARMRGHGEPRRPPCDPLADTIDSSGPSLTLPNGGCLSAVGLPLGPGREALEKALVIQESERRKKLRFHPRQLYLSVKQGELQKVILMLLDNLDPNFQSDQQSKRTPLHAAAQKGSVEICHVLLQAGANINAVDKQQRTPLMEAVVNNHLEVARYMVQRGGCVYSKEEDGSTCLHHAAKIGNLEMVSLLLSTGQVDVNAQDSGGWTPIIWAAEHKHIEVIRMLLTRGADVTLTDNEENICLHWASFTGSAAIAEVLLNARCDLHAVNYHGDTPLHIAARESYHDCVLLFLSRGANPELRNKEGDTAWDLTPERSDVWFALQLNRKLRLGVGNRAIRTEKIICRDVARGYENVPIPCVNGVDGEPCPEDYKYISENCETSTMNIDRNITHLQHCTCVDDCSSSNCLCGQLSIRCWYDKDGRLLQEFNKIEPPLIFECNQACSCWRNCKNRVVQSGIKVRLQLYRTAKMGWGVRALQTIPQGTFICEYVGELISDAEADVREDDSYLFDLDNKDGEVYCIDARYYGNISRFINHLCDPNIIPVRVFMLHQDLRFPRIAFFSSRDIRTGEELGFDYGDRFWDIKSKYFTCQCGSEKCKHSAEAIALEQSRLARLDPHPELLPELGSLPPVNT
# Assay: qHTS Assay for Inhibitors of Histone Lysine Methyltransferase G9a; also: nearly all actives have a fitted effect of over 75% in size
# Conditions: G9a H3K9 monomethylation, AlphaScreen, 2 h; activity, negative = inhibition: at 59 µM (top of the series) unless noted
# Outline: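 Step 1: enzyme (final 20 nM) with compound, 15 min RT. Step 2: substrate peptide 500 nM and SAM 20 uM, 2 h RT. Step 3: anti-H3K9me1 antibody and AlphaScreen beads, 10 min, then plate read.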
# % is scaled to controls: 0 for no effect and ±100 for the full control effect; potency is read from the fitted curve at half-maximal effect; tags tell the direction and shape of the fitted curve.
Structure (SMILES),Potency,"activity, negative = inhibition"
O=C(COC(=O)/C=C/c1cccs1)NC(c1ccccc1)c1ccccc1,inactive,
O=C1NS(=O)(=O)c2ccccc21,"inconclusive: 22.4 µM [inhibitor, single point]",
CN(C(=O)CC1C(=O)NCCN1Cc1cccc(F)c1F)C1CCOCC1 (stereo not drawn),"inconclusive: 89.1 µM [inhibitor, single point]",
O=S(=O)(O)c1cc(O)c2c(N=Nc3ccc(Nc4ccccc4)c4c(S(=O)(=O)O)cccc34)cc(S(=O)(=O)O)cc2c1,"inconclusive: 1.12 µM [inhibitor, full curve, poor fit]",
N#Cc1cccc(C(=O)OCC(=O)c2ccc3c(c2)NC(=O)CO3)c1,"inconclusive: 50.1 µM [inhibitor, partial curve, poor fit]",
O=C(Cn1ncc2c(=O)oc3ccccc3c21)NCC1CCCO1 (stereo not drawn),"inconclusive: 89.1 µM [inhibitor, single point]",
CN(Cc1nccn1C)C(=O)CC1C(=O)NCCN1CC(c1ccccc1)c1ccccc1 (stereo not drawn),"inconclusive: 100 µM [inhibitor, single point]",
Cn1c2ccsc2c2ncn(Cc3ccccc3F)c(=O)c21,,inactive: 0.524% [at 12.7 µM]
COc1ccc(-c2nn(-c3ccccc3)cc2/C=C2/SC(=S)N(CCC(=O)O)C2=O)cc1,active: 39.8 µM,
COc1ccc(-c2nnc(SCC(=O)NCc3cccs3)n2C(C)C)cc1,,inactive: -1.55% [at 12.7 µM]
COc1cc2c(cc1OC)CN(CC(=O)Nc1ccc(C)cc1)CC2,"inconclusive: 89.1 µM [inhibitor, single point]",
COc1ccc(NC(=O)CCSCCc2ccccn2)cc1OC,inactive,
Cc1cccc(NC(=O)C(Cc2ccccc2)N2Cc3ccccc3C2=O)c1C (stereo not drawn),inactive,
CN(Cc1ccccc1)c1nc2c(c(=O)[nH]c(=O)n2C)n1CCCc1ccccc1,"inconclusive: 35.5 µM [inhibitor, single point]",
O=C(COC(=O)/C=C/c1ccc([N+](=O)[O-])cc1)NC1CCCCC1,"inconclusive: 0.891 µM [inhibitor, partial curve, poor fit]",
O=C(NC(=S)Nc1ccc(N2CCOCC2)c(Cl)c1)c1sc2ccccc2c1Cl,active: 1.26 µM,
COc1ccc(OC)c(-c2cc(C(=O)Nc3cccc(Cl)c3)no2)c1,"inconclusive: 89.1 µM [inhibitor, partial curve, poor fit]",
COc1cc(Br)c(C2CC(=O)Nc3cc4c(cc32)OCCO4)cc1OC (stereo not drawn),"inconclusive: 20 µM [inhibitor, partial curve, poor fit]",
